# According to the supplement of paper PMC4604168 (melanoma cell lines):
# This is one part of the list. Repeats are few or missing, and single values can be far off.
# What was measured:
# Assay in all cases: cell count relative to DMSO control; melanoma cells; higher = more viable cells
# MeWo = settings: library dose: low library concentration; 72 h
# RPMI7951 = settings: library dose: low library concentration; 72 h
# RVH-421 = settings: library dose: low library concentration; 72 h
# SkMel28 = settings: library dose: low library concentration; 72 h
# SkMel2 = settings: library dose: low library concentration; 72 h
# SkMel30 = settings: library dose: low library concentration; 72 h
# UACC62 = settings: library dose: low library concentration; 72 h
# WM115 = settings: library dose: low library concentration; 72 h
# WM1716 = settings: library dose: low library concentration; 72 h
# WM1745 = settings: library dose: low library concentration; 72 h
# WM3526 = settings: library dose: low library concentration; 72 h
# WM3619 = settings: library dose: low library concentration; 72 h
# WM451Lu = settings: library dose: low library concentration; 72 h
# MZ2-MEL = settings: library dose: low library concentration; 72 h
# 501Mel = settings: library dose: standard library concentration; 72 h
# A101D = settings: library dose: standard library concentration; 72 h
# A2058 = settings: library dose: standard library concentration; 72 h
# A375 = settings: library dose: standard library concentration; 72 h
structure (smiles),measurement,setting,value
"NC1(c2ccc(-c3nc4ccn5c(=O)[nH]nc5c4cc3-c3ccccc3)cc2)CCC1 + Nc1nc(F)nc2c1ncn2[C@@H]1O[C@H](CO)[C@@H](O)[C@@H]1O [fludarabine] (first compound 0.4 µM, partner dose 0.2 µM)",cell count,MeWo,38.2%
same,cell count,RPMI7951,92.5%
same,cell count,RVH-421,82.4%
same,cell count,SkMel28,66.9%
same,cell count,SkMel2,6.77%
same,cell count,SkMel30,21.6%
same,cell count,UACC62,43.2%
same,cell count,WM115,58.8%
same,cell count,WM1716,95.9%
same,cell count,WM1745,106%
same,cell count,WM3526,28.6%
same,cell count,WM3619,106%
same,cell count,WM451Lu,44%
"CS(=O)(=O)c1ccc(C(=O)Nc2ccc(Cl)c(-c3ccccn3)c2)c(Cl)c1 [vismodegib] + CO[C@H]1C[C@@H]2CC[C@@H](C)[C@@](O)(O2)C(=O)C(=O)N2CCCC[C@H]2C(=O)O[C@H]([C@H](C)C[C@@H]2CC[C@@H](OCCO)[C@H](OC)C2)CC(=O)[C@H](C)/C=C(\C)[C@@H](O)[C@@H](OC)C(=O)[C@H](C)C[C@H](C)/C=C/C=C/C=C/1C [everolimus] (first compound 1 µM, partner dose 0.02 µM)",cell count,MZ2-MEL,78.6%
same,cell count,MeWo,73.6%
same,cell count,RPMI7951,84.4%
same,cell count,RVH-421,86.5%
same,cell count,SkMel28,66.5%
same,cell count,SkMel30,78.7%
same,cell count,UACC62,77.7%
same,cell count,WM115,80.2%
same,cell count,WM1716,73.4%
same,cell count,WM1745,90.4%
same,cell count,WM3526,67.9%
same,cell count,WM3619,78.7%
same,cell count,WM451Lu,68.8%
"CS(=O)(=O)c1ccc(C(=O)Nc2ccc(Cl)c(-c3ccccn3)c2)c(Cl)c1 [vismodegib] + CCc1ccc(CCOc2ccc(CC3SC(=O)NC3=O)cc2)nc1 [pioglitazone] (first compound 5 µM, partner dose 10 µM)",cell count,501Mel,83.5%
same,cell count,A101D,91.9%
same,cell count,A2058,88.9%
same,cell count,A375,121%
"NC1(c2ccc(-c3nc4ccn5c(=O)[nH]nc5c4cc3-c3ccccc3)cc2)CCC1 + CCc1ccc(CCOc2ccc(CC3SC(=O)NC3=O)cc2)nc1 [pioglitazone] (first compound 2 µM, partner dose 10 µM)",cell count,501Mel,58.3%
same,cell count,A101D,68.2%
same,cell count,A2058,72.6%
same,cell count,A375,123%
"C=C(c1ccc(C(=O)O)cc1)c1cc2c(cc1C)C(C)(C)CCC2(C)C [Bexarotene] + N#Cc1c(O)c2c(-c3ccc(-c4ccccc4O)cc3)csc2[nH]c1=O [A769662] (first compound 10 µM, partner dose 10 µM)",cell count,501Mel,80.8%
same,cell count,A101D,106%
same,cell count,A2058,107%
same,cell count,A375,100%
"CCCS(=O)(=O)Nc1ccc(F)c(C(=O)c2c[nH]c3ncc(Cl)cc23)c1F + Oc1nc(-c2ccc(C(F)(F)F)cc2)nc2c1CSCC2 [XAV939] (first compound 0.4 µM, partner dose 10 µM)",cell count,501Mel,84.7%
same,cell count,A101D,75%
same,cell count,A2058,81.2%
same,cell count,A375,94.4%
"CCCS(=O)(=O)Nc1ccc(F)c(C(=O)c2c[nH]c3ncc(Cl)cc23)c1F + CCc1ccc(CCOc2ccc(CC3SC(=O)NC3=O)cc2)nc1 [pioglitazone] (first compound 0.4 µM, partner dose 10 µM)",cell count,501Mel,92%
same,cell count,A101D,68.9%
same,cell count,A2058,106%
same,cell count,A375,83.2%
"CS(=O)(=O)c1ccc(C(=O)Nc2ccc(Cl)c(-c3ccccn3)c2)c(Cl)c1 [vismodegib] + COc1ccc(COc2ccc(Cc3cnc(N)nc3N)cc2OC)cc1 [GW2580] (first compound 5 µM, partner dose 5 µM)",cell count,501Mel,110%
same,cell count,A101D,111%
same,cell count,A2058,101%
same,cell count,A375,123%
"CS(=O)(=O)c1ccc(C(=O)Nc2ccc(Cl)c(-c3ccccn3)c2)c(Cl)c1 [vismodegib] + N#Cc1c(O)c2c(-c3ccc(-c4ccccc4O)cc3)csc2[nH]c1=O [A769662] (first compound 5 µM, partner dose 10 µM)",cell count,501Mel,95%
same,cell count,A101D,98.3%
same,cell count,A2058,101%
same,cell count,A375,115%
"CCCS(=O)(=O)Nc1ccc(F)c(C(=O)c2c[nH]c3ncc(Cl)cc23)c1F + CCCCCCCCCCCC1=C(O)C(=O)C=C(O)C1=O [Embelin] (first compound 0.4 µM, partner dose 6 µM)",cell count,501Mel,98.9%
same,cell count,A101D,57.6%
same,cell count,A2058,108%
same,cell count,A375,111%
"C=C(c1ccc(C(=O)O)cc1)c1cc2c(cc1C)C(C)(C)CCC2(C)C [Bexarotene] + COC(=O)c1sccc1S(=O)(=O)Nc1ccc(Nc2ccccc2)cc1OC [GSK0660] (first compound 10 µM, partner dose 5 µM)",cell count,501Mel,98.4%
same,cell count,A101D,120%
same,cell count,A2058,94.1%
same,cell count,A375,100%
"NC1(c2ccc(-c3nc4ccn5c(=O)[nH]nc5c4cc3-c3ccccc3)cc2)CCC1 + c1cc(-c2cnn3cc(-c4ccc(OCCN5CCCCC5)cc4)cnc23)ccn1 [Dorsomorphin] (first compound 2 µM, partner dose 2 µM)",cell count,501Mel,48.1%
same,cell count,A101D,73.4%
same,cell count,A2058,56%
same,cell count,A375,95.7%
"CS(=O)(=O)c1ccc(C(=O)Nc2ccc(Cl)c(-c3ccccn3)c2)c(Cl)c1 [vismodegib] + COc1ccc2c(c1)CCC1C2CCC2(C)C(NCCCCCCN3C(=O)C=CC3=O)CCC12 [U73122] (first compound 5 µM, partner dose 2 µM)",cell count,501Mel,85.9%
same,cell count,A101D,65.2%
same,cell count,A2058,76.8%
same,cell count,A375,80.6%
"CS(=O)(=O)c1ccc(C(=O)Nc2ccc(Cl)c(-c3ccccn3)c2)c(Cl)c1 [vismodegib] + COc1cc(N2CCC(N3CCN(C)CC3)CC2)ccc1Nc1ncc(Cl)c(Nc2ccccc2S(=O)(=O)C(C)C)n1 [NVP-TAE684] (first compound 5 µM, partner dose 0.4 µM)",cell count,501Mel,73.3%
same,cell count,A101D,114%
same,cell count,A2058,63.7%
same,cell count,A375,94.3%
"CCCS(=O)(=O)Nc1ccc(F)c(C(=O)c2c[nH]c3ncc(Cl)cc23)c1F + COc1cc2ncnc(Nc3ccc(Oc4ccccc4)cc3)c2cc1OC [SrcI1] (first compound 0.4 µM, partner dose 10 µM)",cell count,501Mel,82.2%
same,cell count,A101D,57.4%
same,cell count,A2058,86.7%
same,cell count,A375,113%
"C=C(c1ccc(C(=O)O)cc1)c1cc2c(cc1C)C(C)(C)CCC2(C)C [Bexarotene] + O=S(=O)(c1ccccc1)N(CC(F)(F)F)c1ccc(C(O)(C(F)(F)F)C(F)(F)F)cc1 [T0901317] (first compound 10 µM, partner dose 7 µM)",cell count,501Mel,68.3%
same,cell count,A101D,75.5%
same,cell count,A2058,96.1%
same,cell count,A375,96.1%
